Test results reported in the RNAGym collection of RNA variant scans (doi:10.7554/elife.90254).
Read counts are not given, so values of variants with three or more changes are uncertain.

B1: LINE1-mini (parent)
chain: GGCAGAGCUCAACACAGCGUGGCAAAGUGGCUGUGGCUAGACUGCC

Variants of: B1
Assay: self-cleavage, relative activity (ratio to wild type); higher = more cleavage; in vitro, sequencing; the parent is a self-cleaving ribozyme

Variant | self-cleavage
GGCAGAGCUCAACACAGCUUGGCAAAGUGGCUAUGGGUAGACUGCC [G19U G33A C37G] | 0.05
UGCAGAGGUGAACACAGUGUGGCAAAGUGGCUGUGGCUAGACUGCC [G1U C8G C10G C18U] | 0.02
GGCAGAGCUCAACACAGCGUGGCAAAGUGGUUGUGACUAGAUUUCC [C31U G36A C42U G44U] | 0.05
GGCAUAGCUGAACACAGCGUGGCAAAUUGGCUGUGGCUAGACUGCU [G5U C10G G27U C46U] | 0
GGCAGAGCUCACCACAGCGUGGCAAAGGGGCUGUGGCUAGACUGCA [A12C U28G C46A] | 0.01
GGCAGAGUUAAACACAGCGUGGCAAAGUGUCUGUGGCUAGACUGGC [C8U C10A G30U C45G] | 0.02
GGUAGAACUCGACACAGCGUGGCAAAGUGGCUGUGGCUAGACUGCC [C3U G7A A11G] | 0.09
GGCAGAGCUCAACUCAGUGUGGCAAAGUGGCUGUGGGUAGACUACC [A14U C18U C37G G44A] | 0.22
GGCAGUGAUCAACACAGCGUGGCAAAGUGGCAGUGGCUAGACUGCC [A6U C8A U32A] | 0.02
GGCAGAGCUCAACACAGCGUGGCAAAGUGGCGGAGGUUAGACUGCC [U32G U34A C37U] | 0.04
GGCAGAGCUUAACACAGCGUGGUAAAGUGGCUGUGGCUACACUGCA [C10U C23U G40C C46A] | 0
GGCAGAGCUCAACACAACGUGGCCAAGUGGCCGUGGCUAGACUGAC [G17A A24C U32C C45A] | 0.03
GGCAGGGCACAACACAGCGUGGCAAAGUGGCUAUAGCUAGACUGCC [A6G U9A G33A G35A] | 0.06
GGCACAGCUCAAUACAGAAUGGCAAAGUGGCUGUGGCUAGACUGCC [G5C C13U C18A G19A] | 0.02
AGCUGAGCUCAACACAGCGUGGCAAAGUAGCUGUGGCUAGACUGAC [G1A A4U G29A C45A] | 0.12
GGCAGAGCUCAACGCAGCGUGGCAAAGUGGCUGUUGCUAAAUUGCC [A14G G35U G40A C42U] | 0.01
GCCAGAGCCCAACACAGCGUGGCAAAGUGGCUGUCGCUAGACUGCC [G2C U9C G35C] | 0.04
GGCAGAGCUCCACACAGCGUGGCAAAGAGGUUGUGGCUAGACUGCC [A11C U28A C31U] | 0.01
GGCAGAGCGCAACUCAGCAUGGCAAAGUGGCUGUGGCUAGACAGCC [U9G A14U G19A U43A] | 0.01

Variant | self-cleavage
GGCAGAGAUCAACACAGCGUGGCUAAGUGCCUGUGGCUAGACUGCC [C8A A24U G30C] | 0.13
GCCAGAGCUCAACACAUCGUUGCAAAGUGGCUGUGGCUAGACUGCC [G2C G17U G21U] | 0.05
GGAAGAGCUCAACACACCGUGGCAAAGUGGCUGCGGCUAGACUGCC [C3A G17C U34C] | 0.17
GGCAGAGCUAAACACAGCGUCGCAAAGUGGCUGUGGCUAAACUGCC [C10A G21C G40A] | 0.02
GGCAGAGAUCAACACAGCGUGGCAAAUUGGCUGUUGCUAGACUGCC [C8A G27U G35U] | 0.48
GGCACAGCUCAACACAGCGUGGCAAAGUGGCUGUGGCUAGCAUGCC [G5C A41C C42A] | 0.01
GUAAGAGCUCAACACAGCGUGGCAAAGUGGCUGUGGAUAGACUGCC [G2U C3A C37A] | 0.24
GGCAGAGCUGCACACAGCGUGGAAAAGUGGCUGUGUCUAGGCUACC [C10G A11C C23A G36U A41G G44A] | 0.01
GGCAGACCUCAACACAGCGUGCCAAAGUGGCUCUGGCUAGAUUGGC [G7C G22C G33C C42U C45G] | 0.01
GGGAGAGCUCAACACAGAGUGGUAAAGUGGCUGUGGCUAGACAGCC [C3G C18A C23U U43A] | 0.78
GGAAGAGCUCAACACAGCGUGGCCAAGUGGCUGUAGCUAGACUGCU [C3A A24C G35A C46U] | 0.13
GGCAGAGCUUAACACCGCGUGGCAAAGUCGCUGUGGCUAGACUGCC [C10U A16C G29C] | 0.19
GAUAGAGCUCAACACAGUGCGGCAAAGUGGCUUUGGCUAGAUUGCU [G2A C3U C18U U20C G33U C42U C46U] | 0.22
GGCAGAGCUCAUCACAGCGAGGCAAAGUGGCUGUGGCUAGACUGCU [A12U U20A C46U] | 0.12
GGCAGAGCUCAACACAGCGUGGAAAAGUGGCUGUUGCUAGACUGAC [C23A G35U C45A] | 0.13
GGCAGAGCCCAACACAGCGUGUAAAAGUGGCUGUGGCUAGACUGCC [U9C G22U C23A] | 0.01
GGCAGACCUCGACACAGCGUGGCAAAGUGGCUGUGGCUAGUCUGCC [G7C A11G A41U] | 0.05
GGCAGAGCUCAACACAGCGAGGCAAAGUGGCUGUGGCUAGACUGAU [U20A C45A C46U] | 0.47
GGCAGAGCUCAACACAGCGUGGCAAAGUGGCUGUUCCUAGACUACC [G35U G36C G44A] | 0.07

Variant | self-cleavage
GGCAUAGCUCAACCCACCGUGGCAAAGUGGCUGUGCCUAGACUGCC [G5U A14C G17C G36C] | 0.05
GGCAGAGCUCAACACAGCGUGACAACAUGGCCGUGGCUAGACUGCC [G22A A26C G27A U32C] | 0.68
GGCAGAGCUGAACACAGCGUUGCAAAGUGGCUGUGGCCAGACUGCA [C10G G21U U38C C46A] | 0.02
GACAGAGCUCCACACAGCGUGGCAAAGUCGCUGUGGCUAGACUGCC [G2A A11C G29C] | 0.06
GCAAGAGCUCAACACAGCGUGGCAAAUUGGCUGUGGCUAGACUGCC [G2C C3A G27U] | 0.01
GGAAGAGCUCUACAAAGCGUGGCAAAGUGGCUGUGGCCAGACUACC [C3A A11U C15A U38C G44A] | 0.02
GGCAGAGCUCAACACAGAGUGGCAAAGUGGAUGUGGCUAAACUGCC [C18A C31A G40A] | 0.01
CGCAGAGCUCAACACUGCGUGGCAAAGUGGCUGUGCCUAGACUGCC [G1C A16U G36C] | 0.02
GACAGAGCUCAACACAGCGUGGCAACGUGGCUGUGGUUAGACUGCC [G2A A26C C37U] | 0.1
GGCAAAGCUCAACACAGCGGGACAAAGUGGCUGUGGCUAGACUGCC [G5A U20G G22A] | 0.02
GGGGGAGCUCAACACAGCGUGGCAAAGCGGCUCUGCCUAGACUGCU [C3G A4G U28C G33C G36C C46U] | 0.01
CGCAGAGCUCAACGCAGCGUGGCAAAGUGGCUGUGGCUAGUCUGCC [G1C A14G A41U] | 0.05
GGCAGAGCUCAACACAGCGUGGCAAAGUGCGUGUGCCUAGACUGCC [G30C C31G G36C] | 0.06
GGCAGAGCUCAACACAGCGUGGCUAGGUCGCUGUGGCUACACUGCC [A24U A26G G29C G40C] | 0.02
GGCAGAGCUCAACACAGCGUGGCAAAGUGGCUGUGAAUAGACUUCC [G36A C37A G44U] | 0.04
GGCAGAGCUCAACACAGCGUGGCAAAGUGGCUGUGGCCAGUCUGAC [U38C A41U C45A] | 0.12
GGCAGAGCUCCACACAGGGUGGCAAAGUGGCUGUGGCUAGACUGAC [A11C C18G C45A] | 0.02
GGCAAAGCUGAACACAGCGUGGCAAAGUGGCUGGGGCUAGACUGCU [G5A C10G U34G C46U] | 0.01
